# Test results taken from paper PMC5062570 (Nature Communications, 2016).
# Tests used:
# [1] = target: PF-7802-labelled proteins in ARPE-19 cells (Homo sapiens, UniProt P61978); conditions: for Median SILAC Ratio (Heavy/Light): protein HNRNPK Heterogeneous nuclear ribonucleoprotein K (P61978), one column per replicate
# [2] = target: T1, PF-7802-labelled proteins in ARPE-19 cells (Homo sapiens, UniProt P50990); conditions: for Median SILAC Ratio (Heavy/Light): protein CCT8 T-complex protein 1 subunit theta (P50990)
# T1 sequence (P50990 1-548): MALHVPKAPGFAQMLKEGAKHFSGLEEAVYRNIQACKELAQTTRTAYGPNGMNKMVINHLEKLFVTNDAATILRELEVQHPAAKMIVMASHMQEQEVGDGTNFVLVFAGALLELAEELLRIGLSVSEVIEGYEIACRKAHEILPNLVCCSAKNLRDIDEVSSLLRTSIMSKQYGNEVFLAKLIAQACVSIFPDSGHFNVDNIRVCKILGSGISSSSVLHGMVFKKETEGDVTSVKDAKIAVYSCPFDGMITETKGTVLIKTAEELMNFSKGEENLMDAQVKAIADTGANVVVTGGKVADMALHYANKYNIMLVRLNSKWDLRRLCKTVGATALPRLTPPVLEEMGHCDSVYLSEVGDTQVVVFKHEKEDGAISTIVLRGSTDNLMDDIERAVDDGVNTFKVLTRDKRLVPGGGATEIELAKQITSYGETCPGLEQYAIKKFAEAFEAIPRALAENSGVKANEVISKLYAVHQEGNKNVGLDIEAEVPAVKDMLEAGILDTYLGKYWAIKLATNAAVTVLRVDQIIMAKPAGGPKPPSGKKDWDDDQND
# [3] = target: PF-7802-labelled proteins in ARPE-19 cells (Homo sapiens, UniProt P15880); conditions: protein RPS2 40S ribosomal protein S2, P15880
# [4] = target: PF-7802-labelled proteins in ARPE-19 cells (Homo sapiens, UniProt P21953); conditions: protein BCKDHB 2-oxoisovalerate dehydrogenase subunit beta, mitochondrial (P21953)
# [5] = target: PF-7802-labelled proteins in ARPE-19 cells (Homo sapiens, UniProt P84103); conditions: SRSF3 Serine/arginine-rich splicing factor 3 (P84103)
# [6] = target: PF-7802-labelled proteins in ARPE-19 cells (Homo sapiens, UniProt P34897); conditions: SHMT2 Serine hydroxymethyltransferase, mitochondrial (P34897)
# [7] = target: PF-7802-labelled proteins in ARPE-19 cells (Homo sapiens, UniProt P62318); conditions: SNRPD3 Small nuclear ribonucleoprotein Sm D3 (P62318)
# [8] = target: T2, PF-7802-labelled proteins in ARPE-19 cells (Homo sapiens, UniProt P63104); conditions: for Median SILAC Ratio (Heavy/Light): protein YWHAZ 14-3-3 protein zeta/delta (P63104)
# T2 sequence (P63104 1-245): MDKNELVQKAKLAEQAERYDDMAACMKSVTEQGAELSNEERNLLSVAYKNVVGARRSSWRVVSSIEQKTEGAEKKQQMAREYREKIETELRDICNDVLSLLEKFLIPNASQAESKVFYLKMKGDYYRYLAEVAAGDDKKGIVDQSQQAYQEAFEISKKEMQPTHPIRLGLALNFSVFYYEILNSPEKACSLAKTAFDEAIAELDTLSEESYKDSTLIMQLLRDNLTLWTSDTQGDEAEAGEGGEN
# [9] = target: PF-7802-labelled proteins in ARPE-19 cells (Homo sapiens, UniProt Q14103); conditions: protein HNRNPD Heterogeneous nuclear ribonucleoprotein D0 (Q14103); one column per replicate
# [10] = target: T3, PF-7802-labelled proteins in ARPE-19 cells (Homo sapiens, UniProt P08195); conditions: for Median SILAC Ratio (Heavy/Light): SLC3A2 4F2 cell-surface antigen heavy chain (P08195)
# T3 sequence (P08195 1-529): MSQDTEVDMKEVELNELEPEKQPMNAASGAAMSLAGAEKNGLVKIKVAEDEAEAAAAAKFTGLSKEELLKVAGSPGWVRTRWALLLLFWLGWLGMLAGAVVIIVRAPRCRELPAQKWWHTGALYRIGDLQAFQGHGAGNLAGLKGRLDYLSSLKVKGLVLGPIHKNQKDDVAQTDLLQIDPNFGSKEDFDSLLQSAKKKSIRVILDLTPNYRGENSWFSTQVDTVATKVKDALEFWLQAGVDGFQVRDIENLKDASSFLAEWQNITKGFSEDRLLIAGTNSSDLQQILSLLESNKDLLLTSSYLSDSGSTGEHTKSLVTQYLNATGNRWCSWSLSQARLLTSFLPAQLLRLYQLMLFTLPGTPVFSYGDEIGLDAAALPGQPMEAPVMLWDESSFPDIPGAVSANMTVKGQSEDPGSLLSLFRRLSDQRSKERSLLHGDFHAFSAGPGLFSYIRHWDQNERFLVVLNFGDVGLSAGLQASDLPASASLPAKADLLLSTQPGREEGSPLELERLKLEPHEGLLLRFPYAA
# [11] = target: PF-7802-labelled proteins in ARPE-19 cells (Homo sapiens, UniProt P62750)
# [12] = target: PF-7802-labelled proteins in ARPE-19 cells (Homo sapiens, UniProt Q9Y2X3); conditions: protein NOP58 Nucleolar protein 58 (Q9Y2X3); replicates in separate columns
# [13] = target: PF-7802-labelled proteins in ARPE-19 cells (Homo sapiens, UniProt P53634); conditions: protein CTSC Dipeptidyl peptidase 1 (P53634)
# [14] = target: PF-7802-labelled proteins in ARPE-19 cells (Homo sapiens, UniProt P61224); conditions: protein RAP1B Ras-related protein Rap-1b, P61224
# [15] = target: PF-7802-labelled proteins in ARPE-19 cells (Homo sapiens, UniProt P06756); conditions: protein ITGAV Integrin alpha-V (P06756); one column per replicate
# [16] = target: PF-7802-labelled proteins in ARPE-19 cells (Homo sapiens, UniProt P17987); conditions: TCP1 T-complex protein 1 subunit alpha (P17987)
# Sequence of UniProt P17987 (P17987 whole entry): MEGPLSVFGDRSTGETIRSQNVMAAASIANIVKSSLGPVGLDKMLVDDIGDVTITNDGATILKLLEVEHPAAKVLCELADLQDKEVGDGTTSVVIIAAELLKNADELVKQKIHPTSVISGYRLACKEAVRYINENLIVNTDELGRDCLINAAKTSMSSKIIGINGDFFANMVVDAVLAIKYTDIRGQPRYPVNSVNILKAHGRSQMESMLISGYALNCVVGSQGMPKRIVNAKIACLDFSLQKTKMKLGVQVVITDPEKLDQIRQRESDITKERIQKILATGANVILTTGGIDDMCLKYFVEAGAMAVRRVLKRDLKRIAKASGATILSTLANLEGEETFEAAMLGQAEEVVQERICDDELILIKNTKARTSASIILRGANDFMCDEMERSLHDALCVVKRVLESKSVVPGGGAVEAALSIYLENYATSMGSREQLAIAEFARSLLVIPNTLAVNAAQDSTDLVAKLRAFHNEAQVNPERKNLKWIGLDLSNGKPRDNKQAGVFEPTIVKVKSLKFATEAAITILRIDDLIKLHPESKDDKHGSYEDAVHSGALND
# Sequence of UniProt P84103 (P84103 whole entry): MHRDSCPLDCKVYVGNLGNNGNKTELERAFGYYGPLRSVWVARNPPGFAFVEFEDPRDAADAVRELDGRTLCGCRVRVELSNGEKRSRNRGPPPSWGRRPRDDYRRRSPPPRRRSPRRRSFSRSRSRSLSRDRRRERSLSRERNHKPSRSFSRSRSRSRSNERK
# Sequence of UniProt Q14103 (Q14103 whole entry): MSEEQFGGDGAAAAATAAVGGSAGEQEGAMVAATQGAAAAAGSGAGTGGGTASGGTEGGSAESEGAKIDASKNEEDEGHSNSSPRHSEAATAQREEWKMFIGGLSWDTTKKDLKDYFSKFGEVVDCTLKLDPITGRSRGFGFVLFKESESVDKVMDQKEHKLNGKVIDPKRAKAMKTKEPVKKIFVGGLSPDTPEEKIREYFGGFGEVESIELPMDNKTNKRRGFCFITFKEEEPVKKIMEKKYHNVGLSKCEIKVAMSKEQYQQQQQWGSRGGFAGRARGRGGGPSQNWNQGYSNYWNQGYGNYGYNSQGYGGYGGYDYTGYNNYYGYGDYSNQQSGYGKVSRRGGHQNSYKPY
# Sequence of UniProt P61224 (P61224 whole entry): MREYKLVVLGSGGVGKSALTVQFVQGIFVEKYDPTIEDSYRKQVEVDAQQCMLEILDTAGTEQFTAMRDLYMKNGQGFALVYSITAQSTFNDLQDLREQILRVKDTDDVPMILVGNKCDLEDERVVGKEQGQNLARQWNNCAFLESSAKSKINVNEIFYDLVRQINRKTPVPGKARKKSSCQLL
# Sequence of UniProt P62318 (P62318 whole entry): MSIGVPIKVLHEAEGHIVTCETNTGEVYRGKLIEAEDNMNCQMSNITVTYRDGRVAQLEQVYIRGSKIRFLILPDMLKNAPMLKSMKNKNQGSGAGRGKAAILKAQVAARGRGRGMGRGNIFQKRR
# Sequence of UniProt Q9Y2X3 (Q9Y2X3 whole entry): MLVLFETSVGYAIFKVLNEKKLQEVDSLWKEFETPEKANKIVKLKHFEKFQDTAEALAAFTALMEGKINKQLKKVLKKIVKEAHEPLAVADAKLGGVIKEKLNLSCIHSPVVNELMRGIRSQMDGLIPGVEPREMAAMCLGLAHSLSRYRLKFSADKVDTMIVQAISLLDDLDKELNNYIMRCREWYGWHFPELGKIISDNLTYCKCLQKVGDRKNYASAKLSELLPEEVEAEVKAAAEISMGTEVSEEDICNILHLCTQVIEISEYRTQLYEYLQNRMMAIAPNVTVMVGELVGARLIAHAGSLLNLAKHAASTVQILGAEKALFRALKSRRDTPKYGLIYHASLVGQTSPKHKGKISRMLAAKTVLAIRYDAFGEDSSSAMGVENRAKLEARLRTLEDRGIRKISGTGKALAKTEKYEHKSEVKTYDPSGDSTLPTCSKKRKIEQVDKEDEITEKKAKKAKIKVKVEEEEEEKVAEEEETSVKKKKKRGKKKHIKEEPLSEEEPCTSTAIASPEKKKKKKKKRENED
SMILES,Median SILAC Ratio (Heavy/Light) [1],Median SILAC Ratio (Heavy/Light) [2],Median SILAC Ratio (Heavy/Light) [3],Median SILAC Ratio (Heavy/Light) [4],Median SILAC Ratio (Heavy/Light) [5],Median SILAC Ratio (Heavy/Light) [6],Median SILAC Ratio (Heavy/Light) [7],Median SILAC Ratio (Heavy/Light) ([8]; replicate R1),Median SILAC Ratio (Heavy/Light) [9],Median SILAC Ratio (Heavy/Light) [10],Median SILAC Ratio (Heavy/Light) [12],Median SILAC Ratio (Heavy/Light) [13],Median SILAC Ratio (Heavy/Light) [14],Median SILAC Ratio (Heavy/Light) [15],Median SILAC Ratio (Heavy/Light) [16],other results
"CNC1CCN(C(=O)C[C@@H](Cc2ccccc2)C(=O)N[C@@H](CSC)C(=O)N[C@@H](CC2CCCCC2)[C@@H](O)C(=O)OC(C)C)CC1 [CP-108671, reference compound]",1.184,1.327,1.804,0.6186,1.055,1.0983,1.034,1.941,0.7897,1.137,0.8956,0.5958,1.024,1.264,0.8158,"SILAC ratio (DMSO/CP-108671) ([1]; P61978 HNRNPK Heterogeneous nuclear ribonucleoprotein K): 0.85; SILAC ratio (DMSO/CP-108671) ([2]; P50990 CCT8 T-complex protein 1 subunit theta): 0.75; SILAC ratio (DMSO/CP-108671) ([8]; P63104 YWHAZ 14-3-3 protein zeta/delta): 0.52; SILAC ratio (DMSO/CP-108671) ([10]; P08195 SLC3A2 4F2 cell-surface antigen heavy chain): 0.88; Median SILAC Ratio (Heavy/Light) ([11]; protein RPL23A 60S ribosomal protein L23a, P62750): 1.246"
Cc1cc([C@H]2C[C@H]3[C@@H](C)SC(N)=N[C@@]3(c3ccc(F)cc3F)CO2)on1 [PF-9283],1.409 and 0.9828 and 2.235,1.569,1.896,1.097,1.191 and 0.7904,1.197,0.9988,1.807,0.985 and 0.3331,1.447,1.104,1.158,1.132,1.529,0.8953,Median SILAC Ratio (Heavy/Light) ([8]; replicate R3): 1.992; Median SILAC Ratio (Heavy/Light) ([8]; replicate R4): 2.624; Median SILAC Ratio (Heavy/Light) [11]: 1.1611

# Where “and” joins values, the source holds several entries; their conditions need not be identical. Identical values can stand only once. Like-named read-outs stand apart in the source and are kept apart here.
